Source: the RNAGym collection of RNA variant scans (doi:10.1073/pnas.2313332121)
Variants at the floor of the assay are shown more often than the library holds them.

B1: TPR 5TU (parent)
chain: GGAUCUUCUCGAUCUAACAAAAAAGACAAAUCUGCCACAAAGCUUGAGAGCAUCUUCGGAUGCAGAGGCGGCAGCCUUCGGUGGCGCGAUAGCGCCAACGUUCUCAACUAUGACACGCAAAACGCGUGCUCCGUUGAAUGGAGUUUAUCAUG

Variants of: B1
Test: polymerase ribozyme fitness, log enrichment relative to wild type (log ratio); higher = more active; in vitro selection for triplet polymerase activity
Summary of the method: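 Mutant libraries for each subunit of a heterodimeric triplet polymerase ribozyme were made by PCR and then transcribed. Each library underwent one round of in vitro selection in triplicate: annealing with a biotinylated primer, the partner subunit and triplets, frozen incubation at −7 °C, gel excision of extended constructs, streptavidin-bead capture and RT-PCR. Input and output libraries were Illumina-sequenced, and only genotypes with ≥10 input reads and ≥1 read per output were kept. Fitness is the logarithm, base 2, of genotype enrichment over wild-type enrichment, computed from inverse-variance-weighted replicate averages.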

GGAUCUUCUCGGUCUAACAAAAAAGACAAAUCUGCCUCAAAGCUUGAGAGCAUCGUCGGAUGCAGAGGCGGCAGCCUUCGGUGGCGCGAUAGCGCCAACGUUCUCAACUAUGCCACGCAAAACGCGUGCUCCGUUGAAUGGAGUUUAUCAUG and GGAUCUUCUCGGUCUAACAAAAAAGACAAAUCUGCCACCAAGCUUGAGAGCAUCUUCGGAUGCAGAGGCGGCAGGCUUCGGUGGCACGAUAGCGCCAACGUUCUCAACUAUGACACGCAAAACGCGUGCUCCGUUGAAUGGAGUUUAUCAUG cannot be ordered by “polymerase ribozyme fitness (log ratio)” value: ≤ -4.2 for the first, ≤ -4.2 for the second.

Compared with GGAUCUUCUCGGUCUAACAAAAAAGACAAAUCUGCCACAAAGCUUGAGAGCCUCUUCGGAUGCAGAGGCGGCAGGCUUCGGUGGAGCGAUAGCGCCAACGUUCUCAACUAUGACACGCAAAACGCGGGCUCCGUUGAAUGGAGUUUAUCAUG, GGAUCUUCUCGGUCUAACAAAAAAGACAAAUCUGCCACAAAGCUUGAGAGCCUCUUCGGAUGCAGAGGCGGCAGCCUUCGGUGGCGCGAUAGUGCCAUCGUUCUCAACUAUGACACGCAAAACACGUGCUCCGUUGAAUGGAGUUUAUCAUG is higher in “polymerase ribozyme fitness (log ratio)” value: ≤ -4.2 for the first, -2 for the second.

GGAUCUUCUCGGUGUAACAAAGAAGACAAAUCUGCCACAAAGCUUGAGAGCAUCUUCGGAAGCAGAGGCGACAGCCUUCGGUGGCGCGAUAGCGCCAAUGUUCUCAACUAUGACACGCAAAAUGCGUGCUCCGUUGAAUGGGGUUUAUCAUG and GGAUCUUCUCGGUGUAACAAAAAAGACAAAUCUGCCACAAAGCUUGAGAGCCUCUUCGGAUGCAGAAGCGGCAGCCUUCGGUGGCGCGAUAGCGCCAACGUUCUCAACUAUGACACGCAAAACACGUGCUCCGUUGCAUGGAGUUUAUCAUG cannot be ordered by “polymerase ribozyme fitness (log ratio)” value: ≤ -4.2 for the first, ≤ -4.2 for the second.

GGAUCUUCUCGGUGUAACAAAAAAGACAAAUCUGCCACAAAGCUUGAGAGCAUCUUCGGAUGCAGAGGCGGCAGCCUUCGGUGGCGCGAUAGCGCCUACGUUCUCAACUAUGACACGCAAAACGCGUGCUCCGUUGAAUGGAGUUUAUCAUG and GGAUCUUCUCGGUGUAAUAAAAAAGACAAAACUGCCACAAAGCUUGAGAGCAUCUGCGGAUGCAGAGGCGGCAGCCUUCGGUGGCGCGAUAGCGCCAACGAUCUCAACUAUGACACGCAAAACGCGUGCUCCGUUGAAUGGAGUUUAUCAUG are within 0.2 log units of each other in “polymerase ribozyme fitness (log ratio)” value: -2.49 for the first, -2.32 for the second.

Compared with GGAUCUUCUCGGUGUAACAAAAAAGACAAAUCUGCCACAAAGCUUGAGAGCAUCUUCGGAUGCAGAGGCGGCAGCCUUCGGUGGCGCGAUACCGCCAACGUUCUCAACUAUGACACGCAAAACGCGUGCUCCGUUGAAUGGAGUUUAUCAUG, GGAUCUUCUCGGUGUAACAAAAAAGACAAAACUGCCACAAAGCUUGAGAGCAUCGUCGGAUGCAGAGGCGGCAGCCUUCGGUGGCGCUAUAGCGCCAACGUUCUCAACUAUGACACGCAAAACGCGUGCUCCGUUGAAUGGAGUUUAUCAUG is lower in “polymerase ribozyme fitness (log ratio)” value: -2.86 for the first, ≤ -4.2 for the second.

GGAUCUUCUCGGUUUAACAAAAAAGACAAAUCAGCCACAAAGCUUGAGAGCAUCUUCGGAUGCAGAGGCGGCAGCCUUCGGUGACGCAAUAGCGCCAACGUUCUCAACUAUGACACGCAAAACGCGUGCUCCGUUGAAUGGAGUUUAUCAUG and GGAUCUUCUCGGUCUAAGAAAAAAGACAACUCUGCCACAAAGCUUGAGAGCAUCUUCGGAUGCAGAGGCGGCAGCCUUCGGUGGCGCGAUAGCGCCAAAGUUCUCAACUAUGACACGCAAAACGCGUGCUCCCUUGAAUGGAGUUUAUCAUG cannot be ordered by “polymerase ribozyme fitness (log ratio)” value: ≤ -4.2 for the first, ≤ -4.2 for the second.

GGAUCUUCUCGGUCUAAGAAAAAAGACAAAUCUGCCACAAAGCUUGAGAGCAUCUUCAGAUGCAGAGGCGGCAGCCGUCGGUGGCGCGAUAGCGCGAACGUUCUCAACUAUGACACGCAAAACGCGUGCUCCGUUGAAUGUAGUUUAUCAUG and GGAUCUUCUCGGUCUAAGAAAAAAGACAAAUCUGCCACAAAGCUUGAGAGCAUCUUCCGAUGCAGAGGCGGCAGCCUUCGGUGGCGCGAUAGCGCCAACGUUGUCAACUAUGAAACGCGAAACGCGUGCACCGUUGAAUGGAGUUUAUCAUG cannot be ordered by “polymerase ribozyme fitness (log ratio)” value: ≤ -4.2 for the first, ≤ -4.2 for the second.

GGAUCUUCUCGGUCUAAUAAAAAAGACAAAUCUGCCACAAAGCUUGCGAGCAUCUUCGGGUGCAGAGGCGGCAGCCUUCGGUGGUGCGAUAGCGCCAACGUUCUCAACUAUGACACGCAAAACGCGUGCUCCGUUGAAUGGAUUUUAUCAUG and GGAUCUUCUCGGUCUAACAAAAAAGAGAAAUCUGCCACAAAGCUUGAGAGCAUCUUCGGAUGCAGAGGCGGCAGCCUUCGGUCGCGCGAUAGCGCCUACGUUCUCAACUAUGACACGCAAAAUGCGUGCUCCGUUGAAUGGAGUUUAUCAUG cannot be ordered by “polymerase ribozyme fitness (log ratio)” value: ≤ -4.2 for the first, ≤ -4.2 for the second.

GGAUCUUCUCGGUCUAACAAAAAAGAUAAAUCUGCCACAUAGCUUGAGAGCAUCUUCGGAUGCAGAGGCGGCGGCCUUCGGUGGCGGGAUAGCGACAACGUUCUCAACUAUGACACGCAAAACUCGUGCUCCGUUAAAUGGAGUUUAUCAUG and GGAUCUUCUCGGUCUAACAAAAAAGACAAAUAUGCCAUAAAGCUUGAGAGCAUCUUCGGAUGCAGAGGCGGCAGCCUUCGGUGGCGCGAUAGCGCCAAAGUUCUCAACUAUGACACGCAAAACGCGUGCUCCGUUGAAUGGAGUUUAUCAUG cannot be ordered by “polymerase ribozyme fitness (log ratio)” value: ≤ -4.2 for the first, ≤ -4.2 for the second.

For GGAUCUUCUCGGUCUAACAAAAAAGACAAAUCUGACACAAAGCUUGAGAGCAUCUUCGGAUGCAGAGGCGGCAGCCUUCGGUGGCGCGAUAGCGUCAACGUUCUCUACUAUGACACGCAAAACGCGUGCUCCGUUGAAUGGAGUUUAUCAUG, the “polymerase ribozyme fitness (log ratio)” value was ≤ -4.2.
